Source: the supplement of paper PMC7826260
Some of the results follow. Each Rep nickase domain was tested in vitro on the same pool of single strands (1 h at 37 °C, 3 µM enzyme); the outer parts of the 90-letter strands are left off. Uncut reads are compared with the no-enzyme pool on a log2 scale; more negative means more cut, near 0 not cut, and no call is made. The scaling is to total reads, so uncut sequences can rise above 0 when many others are cut.

Legend:
Assay in all cases: uncleaved DNA left, log2 of reads against the no-enzyme library (log2 ratio); higher = less cleavage (more negative = more Rep cleavage of the k-mer); sequences stand for … in CTCGTCCG…ACCGGAGA
[1] = test system: T1, Rep nickase domain of Muscovy duck circovirus
T1 sequence (protein, residues 1-111, tag omitted): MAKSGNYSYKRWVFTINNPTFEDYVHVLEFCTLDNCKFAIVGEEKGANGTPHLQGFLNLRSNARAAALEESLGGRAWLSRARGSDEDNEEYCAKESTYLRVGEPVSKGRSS
Method: (§1)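 A pool of 90-nt single-stranded DNAs with seven random bases just before the constant AC of the nick site (name = the seven bases) was cut by 3 µM recombinant His6-SUMO-tagged Rep nickase domain (300 nM DNA, 50 mM HEPES pH 8.0, 50 mM NaCl, 1 mM MnCl2, 1 h, 37 °C, three replicates). Uncut DNA was amplified and sequenced.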

[2] = test system: T2, Rep nickase domain of banana bunchy top virus
T2 sequence (protein, residues 1-94, tag omitted): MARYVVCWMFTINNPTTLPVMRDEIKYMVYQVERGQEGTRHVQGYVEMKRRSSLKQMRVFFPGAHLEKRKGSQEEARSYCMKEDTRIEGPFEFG
Method: as §1

[3] = test system: T3, Rep nickase domain of cabbage leaf curl virus
T3 sequence (protein, residues 1-116, tag omitted): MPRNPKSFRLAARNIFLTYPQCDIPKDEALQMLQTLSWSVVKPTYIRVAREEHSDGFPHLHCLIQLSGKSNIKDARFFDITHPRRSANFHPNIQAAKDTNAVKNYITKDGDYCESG
Method: as §1

[4] = test system: T4, Rep nickase domain of chickpea chlorotic dwarf virus
T4 sequence (protein, residues 1-124, tag omitted): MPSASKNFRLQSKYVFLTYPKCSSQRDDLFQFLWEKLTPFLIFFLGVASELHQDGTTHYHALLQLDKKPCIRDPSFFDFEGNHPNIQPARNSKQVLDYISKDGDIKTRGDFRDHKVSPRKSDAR
Method: as §1

[5] = test system: T5, Rep nickase domain of faba bean necrotic yellows virus
T5 sequence (protein, residues 1-98, tag omitted): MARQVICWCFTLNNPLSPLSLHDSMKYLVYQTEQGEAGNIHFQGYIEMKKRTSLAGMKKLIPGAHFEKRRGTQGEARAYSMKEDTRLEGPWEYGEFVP
Method: as §1

[6] = test system: T6, Rep nickase domain of maize striate mosaic virus
T6 sequence (protein, residues 1-117, tag omitted): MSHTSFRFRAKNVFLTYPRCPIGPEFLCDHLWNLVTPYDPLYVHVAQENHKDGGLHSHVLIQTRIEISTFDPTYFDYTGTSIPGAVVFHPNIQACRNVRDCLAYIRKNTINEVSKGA
Method: as §1

[7] = test system: T7, Rep nickase domain of porcine circovirus 2
T7 sequence (protein, residues 2-116, tag omitted): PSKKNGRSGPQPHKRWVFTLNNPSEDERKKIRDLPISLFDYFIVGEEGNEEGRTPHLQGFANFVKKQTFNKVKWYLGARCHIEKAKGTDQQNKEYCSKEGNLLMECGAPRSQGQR
Method: as §1

[8] = test system: T8, Rep nickase domain of tomato golden mosaic virus
T8 sequence (protein, residues 1-124, tag omitted): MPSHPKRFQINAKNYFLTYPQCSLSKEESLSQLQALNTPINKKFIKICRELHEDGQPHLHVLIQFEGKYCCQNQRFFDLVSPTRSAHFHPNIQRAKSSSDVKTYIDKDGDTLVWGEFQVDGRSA
Method: as §1

[9] = test system: T9, Rep nickase domain of tomato yellow leaf curl virus
T9 sequence (protein, residues 1-136, tag omitted): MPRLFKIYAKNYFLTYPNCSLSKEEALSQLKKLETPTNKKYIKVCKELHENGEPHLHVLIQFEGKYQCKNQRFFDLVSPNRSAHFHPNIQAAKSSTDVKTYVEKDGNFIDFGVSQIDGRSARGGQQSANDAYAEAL
Method: as §1

[10] = test system: T10, Rep nickase domain of wheat dwarf virus
T10 sequence (protein, residues 1-137, tag omitted): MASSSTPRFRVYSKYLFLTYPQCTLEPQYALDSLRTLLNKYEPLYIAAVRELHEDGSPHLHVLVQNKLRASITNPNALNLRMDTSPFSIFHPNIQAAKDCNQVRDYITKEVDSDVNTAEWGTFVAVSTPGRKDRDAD
Method: as §1

Sequence	uncleaved DNA left (log2) [1]	uncleaved DNA left (log2) [2]	uncleaved DNA left (log2) [3]	uncleaved DNA left (log2) [4]	uncleaved DNA left (log2) [5]	uncleaved DNA left (log2) [6]	uncleaved DNA left (log2) [7]	uncleaved DNA left (log2) [8]	uncleaved DNA left (log2) [9]	uncleaved DNA left (log2) [10]
ATCTTTC	0.0462	0.0259	0.0755	-0.158	0.0407	-0.764	0.0119	0.0134	0.13	0.00942
ACGAAAC	0.116	0.0223	-0.115	-0.0834	0.00535	-0.663	0.177	-0.0195	-0.0944	0.132
GGTGGGC	0.0891	0.0203	0.684	1.42	-0.0269	1.89	0.166	-0.0342	0.0919	0.0147
TTTTCAA	0.0576	0.0966	0.267	0.459	-0.00115	0.679	-0.0408	-0.0168	0.0907	0.138
TTGGCCA	0.149	0.191	0.271	0.0386	0.0742	0.209	0.154	0.017	0.0917	0.209
GCCTCTG	0.0145	-0.0416	-0.169	0.255	-0.0303	0.0995	0.0345	0.0309	-0.132	-0.0053
TCTAACC	-0.189	-0.0218	-0.261	-1.31	0.00576	-0.522	-1.02	0.0213	-0.0142	-0.132
TCTAGAA	0.132	-0.00242	0.224	-0.0317	-0.0155	-0.271	0.0992	0.0698	-0.000635	-0.0462
GGTTTGT	-0.0733	0.0545	0.415	1.23	-0.081	1.5	-0.105	0.0024	0.079	0.0386
TTACGCC	-0.00671	-0.0996	-0.165	-1.3	-0.0242	-0.826	-0.138	-0.05	-0.0445	-0.0929
TGATAAA	-0.0221	0.0953	0.0619	0.0259	-0.0104	-0.176	-0.0989	-0.0685	-0.0833	-0.0533
GTGGTGT	0.000445	0.018	0.479	0.95	0.0921	1.46	0.0494	-0.0189	0.13	0.0922
GTGTTCA	-0.00107	0.0649	0.385	0.967	0.0509	1.87	0.16	0.0548	0.0584	0.119
GGCAATT	0.0637	0.0797	0.752	1.56	0.0644	2.08	0.13	0.00139	0.25	0.104
AGTCCGG	-0.023	-0.0267	0.333	1.09	-0.0521	1.24	0.085	0.0916	0.0214	0.00668
ACCAGGG	0.0689	0.133	-0.271	0.174	0.184	-0.519	0.22	0.0308	0.156	-0.0252
CGGGGAA	0.202	0.0741	0.74	1.38	0.105	2.05	0.201	-0.113	0.0245	0.209
TCGACTT	0.137	0.0343	0.129	0.663	-0.0201	1.72	-0.0532	-0.0361	0.183	0.21
AAGCTCC	-0.0736	-0.017	0.0791	0.0185	-0.0303	1.15	-0.0303	0.00134	-0.0375	-0.0655
TTAGTCT	0.017	0.00779	-0.0943	-2.26	-0.0121	-0.581	-0.0689	-0.00502	0.0365	-0.143
ACGTATT	-3.33	-3.06	-1.07	-2.91	-3.15	-0.484	-3.82	-0.263	-0.0555	-0.758
CTCGTAG	0.12	0.0532	-0.738	-0.6	0.0206	-1	0.233	0.0718	0.062	-0.031
TCTACGC	-0.0513	-0.102	-0.0237	-0.685	-0.0297	-0.409	-0.053	-0.0999	-0.0967	-0.155
TCCAGGG	-0.0525	-0.0832	0.0118	0.368	-0.114	-0.369	0.0602	-0.0907	-0.0883	-0.0731
ACAATAA	-0.0173	-0.0111	-0.202	-0.259	-0.0467	-0.787	0.182	0.061	-0.116	0.0273
GACGCCC	0.0512	0.0589	0.134	0.302	0.03	0.348	-0.0131	0.0351	0.0287	0.132
CCGGGGA	-0.0596	-0.0495	0.773	1.21	-0.146	2.12	-0.0267	-0.0557	-0.0925	-0.0161
GTCCGGA	0.0248	0.0924	0.403	1.01	-0.0204	1.35	0.16	0.128	0.127	0.139
CCGGCAC	-0.0124	-0.0901	0.189	0.0751	0.112	0.167	0.0376	-0.0321	-0.00501	-0.0933
CACATCC	0.069	-0.04	-0.0638	-0.258	-0.0215	-0.585	0.0111	-0.0883	-0.0288	-0.00715
